Reference: PubChem BioAssay AID504832 (National Center for Advancing Translational Sciences (NCATS), 2011)
“And” between values parts separate entries of the source, which are not always exact repeats. Equal values may be shown once. Hit rate of the full screen: of about 310,000 compounds, about 18,000 (5.8%) were called active. Inconclusive results, whose numbers are uncertain, are shown with a selection of clear calls. Calls come from the whole dose curve; as a rule, active = well fitted inhibition curve with a large enough effect; inconclusive = small, poorly fitted or top-dose-only effect, or another doubt; inactive = no such curve, though single readings can be large or run the other way. A potency beside an inconclusive call is a rough fit, not a confirmed value.

Experiment: Primary qHTS for delayed death inhibitors of the malarial parasite plastid, 48 hour incubation
Conditions: P. falciparum luciferase growth in erythrocytes; series mostly up to 28.7 µM
Method in brief: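 Luciferase-expressing parasites in RBCs, 2% Hct / 0.1% parasitemia final; RPMI 1640 + 0.5% Albumax; 37 C, 5% CO2, one generation; luminescence read-out, lower signal = inhibition.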
Potency is the fitted concentration of half-maximal effect; tags give direction and shape of the fitted curve.

Which Potency does the source give for `Cc1ccc(C(=O)O/N=C2/CC3CCC2(C)[C@@]3(C)CBr)cc1` (some centres not stated) here?
The Potency was inconclusive: 14.7 µM [inhibitor, single point].

For `Cc1c(C)n(CCc2ccccc2)c2ncnc(NCCCN(C)C)c12`, which Potency is on record?
Its Potency is inconclusive: 18.5 µM [inhibitor, single point].

With `C=CCn1c(O)c(C(C)=Nc2ccc3c(c2)CCC3)c(=O)[nH]c1=O` as the compound, how does the Potency read?
The Potency was inconclusive: 18.5 µM [inhibitor, partial curve, poor fit].

With `CC(C)c1cccc(C2=CC(=O)C[C@H](c3ccc4c(c3)OCO4)C2)c1` as the compound, how does the Potency read?
Its Potency is active: 13.1 µM.

With `C=CCN(c1ccccc1)S(=O)(=O)c1ccc2[nH]cc(C(=O)NCCOC)c(=O)c2c1` as the compound, how does the Potency read?
The Potency was inconclusive: 9.28 µM [inhibitor, partial curve].

For `O=C(Cc1c(Cl)cccc1Cl)OCc1ccccn1`, which Potency is on record?
The Potency was inconclusive: 18.5 µM [inhibitor, single point].

Which Potency does the source give for `CS(=O)(=O)N1CCN(C(=O)COc2ccccc2)CC1` here?
The Potency was “inactive”.

With `CCCN1C2CCCC1CC(NC(=O)c1cc(OC)cc(OC)c1)C2` (configuration not stated) as the compound, how does the Potency read?
The Potency was inconclusive: 4.65 µM [inhibitor, partial curve, poor fit].

With `COc1ccc(NC(=O)c2c(N)no[n+]2[O-])c(OC)c1` as the compound, how does the Potency read?
The Potency was “inactive”.

Which Potency does the source give for `O=C(N/C(=C/c1ccc(Cl)cc1)c1nc2ccccc2[nH]1)c1ccco1` here?
The Potency was “inactive”.

With `O=c1[nH]c(=S)n(C2CCCCC2)c(O)c1C=NCCN1CCOCC1` as the compound, how does the Potency read?
The Potency was inconclusive: 0.0026 µM [inhibitor, full curve, poor fit].

With `Cc1ccc(NC(=O)Cc2ccc3c(c2)CCCC3)cc1C` as the compound, how does the Potency read?
The Potency was “inactive”.

With `O=C(NC(=S)Nc1ccc(N2CCCCC2)cc1)c1ccc2c(c1)OCCO2` as the compound, how does the Potency read?
The Potency was “inactive”.

For `COC(=O)c1cc(C(=O)OC)cc(N2C(=O)CC(N3CCN(c4ccccc4)CC3)C2=O)c1` (configuration not stated), which Potency is on record?
The Potency was inconclusive: 11.7 µM [inhibitor, single point].

Which Potency does the source give for `CCOc1ccc(NC(=O)c2ccc3c(c2)N(Cc2ccc(F)cc2)C(=O)CS3=O)cc1` (configuration not stated) here?
Its Potency is active: 10.4 µM.

For `Cc1ccc(C)c(NC(=O)CN(C)C(=O)c2oc3c(Cl)cccc3c2C)c1`, which Potency is on record?
Its Potency is active: 4.15 µM.

Which Potency does the source give for `Cc1ccc(S(=O)(=O)N2CCN(C(=O)c3cc(-c4cccs4)nn3-c3ccccc3)CC2)cc1` here?
The Potency was “inactive”.

Which Potency does the source give for `O=C(/C=C/c1cccs1)N1CCC2(CC1)Oc1ccc(F)cc1C(=O)C21CC(c2ccccc2)=NO1` (configuration not stated) here?
Its Potency is active: 10.4 µM.

Which Potency does the source give for `COc1ccc(-c2cc(C(F)(F)F)nc(S(C)(=O)=O)n2)cc1OC` here?
The Potency was inconclusive: 10.4 µM [inhibitor, partial curve, poor fit].

With `Cc1ccc2nc(-c3ccccn3)cc(C(=O)NC(C)C(C)(C)C)c2c1` (configuration not stated) as the compound, how does the Potency read?
Its Potency is inconclusive: 11.7 µM [inhibitor, single point].

Which Potency does the source give for `S=C(NCc1ccc2c(c1)OCO2)Nc1ccc(-c2nc3ccccc3[nH]2)cc1` here?
The Potency was active: 11.7 µM.

For `O=S(=O)(Nc1ccc(S(=O)(=O)Nc2ncccn2)cc1)c1ccc(Cl)cc1`, which Potency is on record?
Its Potency is inconclusive: 0.0928 µM [inhibitor, full curve, poor fit].

Which Potency does the source give for `COc1ccc(NC(=O)CSc2nncn2N)c(OC)c1` here?
Its Potency is inconclusive: 18.5 µM [inhibitor, single point].

With `NC(=S)NN=C1C2CC3CC(C2)CC1C3` as the compound, how does the Potency read?
The Potency was inconclusive: 10.4 µM [inhibitor, single point].

Which Potency does the source give for `CC(O)(C#CCN1CCCCC1)c1ccccc1` (configuration not stated) here?
The Potency was “inactive”.

For `COc1ccc([C@H]2CC(=O)C=C(c3cccc4c3Oc3ccccc3S4)C2)cc1`, which Potency is on record?
The Potency was “inactive”.

Which Potency does the source give for `CCCCCn1c(SCC2CCCO2)nc2cc(C(=O)N3CCC(C(N)=O)CC3)ccc2c1=O` (configuration not stated) here?
Its Potency is inconclusive: 5.86 µM [inhibitor, partial curve].

With `COc1ccc2[nH]c3c(=O)n(N)c(C)nc3c2c1` as the compound, how does the Potency read?
Its Potency is “inactive”.

With `Cc1cc(=O)[nH]c(SCC(=O)NC2CCCc3ccccc32)n1` (configuration not stated) as the compound, how does the Potency read?
Its Potency is inconclusive: 0.928 µM [inhibitor, full curve].

Which Potency does the source give for `O=c1c2ccccc2[se]n1-c1ccccc1` here?
The Potency was inconclusive: 19 µM [inhibitor, single point] and inconclusive: 18.5 µM [inhibitor, single point].

With `Cc1ccnc(NCc2ccc(Br)cc2)c1` as the compound, how does the Potency read?
The Potency was “inactive”.

For `CSC1CCCCC1(O)CSc1nc2c(cc1C#N)CCCC2` (configuration not stated), which Potency is on record?
Its Potency is active: 9.28 µM.

With `COc1ccc(OCCCC(=O)OC(C)C(=O)Nc2cccc(C(C)=O)c2)cc1` (configuration not stated) as the compound, how does the Potency read?
Its Potency is “inactive”.

Which Potency does the source give for `COc1cccc(CNc2ncnc3cc(Cl)ccc23)c1` here?
The Potency was inconclusive: 16.5 µM [inhibitor, single point].

Which Potency does the source give for `C#CCNC(=O)C1=C[C@H](c2coc3ccccc3c2=O)C[C@H](OCCCCO)O1` here?
The Potency was “inactive”.

With `CCOc1ccc(N(CC(=O)Nc2nccs2)S(=O)(=O)c2c(C)[nH]c(=O)[nH]c2=O)cc1` as the compound, how does the Potency read?
The Potency was “inactive”.

With `CCOC(=O)C1=C(C)N(c2nonc2NC(C)=O)C(N)=C(C#N)C1c1ccccc1F` (configuration not stated) as the compound, how does the Potency read?
The Potency was inconclusive: 4.15 µM [inhibitor, single point].

For `CNNC(=S)NCCC1=CCCCC1`, which Potency is on record?
Its Potency is “inactive”.

With `CN(Cc1nccs1)C(=O)C1CCC(=O)N(CCc2ccc(Cl)cc2)C1` (configuration not stated) as the compound, how does the Potency read?
The Potency was “inactive”.

Which Potency does the source give for `COc1ccccc1-c1ccc(SCC(=O)NC2CCCCC2)nn1` here?
Its Potency is inconclusive: 10.4 µM [inhibitor, single point].

Which Potency does the source give for `COc1c(C)cc(Br)cc1C(=O)Nc1cccc(NC(=O)c2ccco2)c1` here?
The Potency was inconclusive: 11.7 µM [inhibitor, single point].

With `CCOc1cc(/C=C2/SC(=S)NC2=O)ccc1OC(=O)c1ccco1` as the compound, how does the Potency read?
Its Potency is “inactive”.

Which Potency does the source give for `CCOc1ccc(-c2nnn(CC(=O)c3ccc4c(c3)OCCO4)n2)cc1OCC` here?
Its Potency is “inactive”.

Which Potency does the source give for `CCOC(=O)c1c(NC(=S)NC)sc2c1CC(C)(C)SC2` here?
Its Potency is active: 4.15 µM.

Which Potency does the source give for `CC(/C=N\NC(=O)CN1CCN(S(=O)(=O)c2ccc(C)cc2)CC1)=C\c1ccccc1` here?
Its Potency is “inactive”.

For `Cc1ccc(OC(=O)CCc2c(C)nc3ncnn3c2C)cc1`, which Potency is on record?
The Potency was “inactive”.

Which Potency does the source give for `Cc1c(OCC(=O)NC2CCN(Cc3ccccc3)CC2)ccc2c3c(c(=O)oc12)CCC3` here?
Its Potency is inconclusive: 14.7 µM [inhibitor, single point].

Which Potency does the source give for `CCc1ccccc1NC(=O)CN(C)C(=O)CSc1nc2cc(Cl)ccc2s1` here?
Its Potency is “inactive”.

For `CCn1c(=S)sc2c(=O)n(CC(=O)Nc3cccc(Cl)c3)c(C)nc21`, which Potency is on record?
Its Potency is inconclusive: 18.5 µM [inhibitor, single point].

For `Cc1c(N(C(=O)c2ccccn2)C2(C(=O)NC3CCCC3)CCCCC2)c(=O)n(-c2ccccc2)n1C`, which Potency is on record?
Its Potency is inconclusive: 18.5 µM [inhibitor, single point].

Which Potency does the source give for `Cc1cc(C)cc(NC(=O)C2C3C=CC4(O3)C2C(=O)N(CCN2CCCCC2)C4C(=O)NC2CCCCC2)c1` (configuration not stated) here?
The Potency was inconclusive: 11.7 µM [inhibitor, partial curve].

With `O=C(NNC(=O)c1cc(-c2ccccc2Cl)nc2ccccc12)c1csc(N2CCOCC2)n1` as the compound, how does the Potency read?
The Potency was inconclusive: 18.5 µM [inhibitor, partial curve, poor fit].

With `COc1ccc(-n2nc(C(=O)NCC(=O)NCc3ccccc3OC)c3ccccc3c2=O)cc1` as the compound, how does the Potency read?
The Potency was inconclusive: 13.1 µM [inhibitor, partial curve, poor fit].

Which Potency does the source give for `CCn1c(=O)ccc2cc([N+](=O)[O-])ccc21` here?
The Potency was “inactive”.

With `O=C(c1cccc(C(F)(F)F)c1)C1CCCN(C(=O)c2cc(C3CC3)[nH]n2)C1` (configuration not stated) as the compound, how does the Potency read?
Its Potency is inconclusive: 18.5 µM [inhibitor, single point].

Which Potency does the source give for `COc1ccccc1/C=C(/C(=O)OCC(=O)N(C)Cc1ccccc1)c1ccccc1` here?
The Potency was “inactive”.

For `Cc1nc2ccccc2n1CC(O)Cn1c2ccccc2c2ccccc21` (configuration not stated), which Potency is on record?
Its Potency is active: 11.7 µM.

Which Potency does the source give for `CCCCN1C(=O)NC(=O)C2(Cc3c(nc4ccccn4c3=O)N3CCc4ccccc4C32)C1=O` (configuration not stated) here?
Its Potency is inconclusive: 10.4 µM [inhibitor, single point].

For `Cc1ccccc1Nc1nc(N)nc(CSc2nncn2C)n1`, which Potency is on record?
Its Potency is inconclusive: 4.15 µM [inhibitor, single point].

For `O=C(Cc1ccc(Br)cc1)N1CCN(C(=O)c2ccccc2)CC1`, which Potency is on record?
Its Potency is “inactive”.

With `CCCN(C#N)c1nc(NCC)nc(NC(C)C)n1` as the compound, how does the Potency read?
Its Potency is inconclusive: 10.4 µM [inhibitor, single point].

With `CCN(CC)CC(O)c1cccn1-c1ccc(CNC(=O)NC(C)C)cc1` (configuration not stated) as the compound, how does the Potency read?
Its Potency is inconclusive: 1.85 µM [inhibitor, full curve, poor fit].

For `CSCCC(NS(=O)(=O)c1ccccc1F)C(=O)N1CC=C(c2ccccc2)CC1` (configuration not stated), which Potency is on record?
The Potency was inconclusive: 11.7 µM [inhibitor, single point].

Which Potency does the source give for `C=CCNc1nc(Cl)nc(NCc2ccco2)n1` here?
The Potency was inconclusive: 0.104 µM [inhibitor, full curve, poor fit].

For `N/C(=N\c1nc2ccccc2o1)NC(=O)c1ccccc1NC(=O)c1ccccc1`, which Potency is on record?
The Potency was inconclusive: 18.5 µM [inhibitor, single point].

With `Cc1ccc(C)c(N2CCN(C(=O)CCc3nc4ccccc4[nH]3)CC2)c1` as the compound, how does the Potency read?
Its Potency is “inactive”.

With `CCCCOP(=O)(c1ccc(N(C)C)cc1)C(O)c1ccccc1F` (configuration not stated) as the compound, how does the Potency read?
Its Potency is inconclusive: 13.1 µM [inhibitor, single point].

For `Cc1ccc(CNC(=O)CCC(=O)Nc2nnc(C)s2)cc1`, which Potency is on record?
Its Potency is inconclusive: 18.5 µM [inhibitor, partial curve, poor fit].

Which Potency does the source give for `COCCN(C(=O)CNC(=O)c1ccco1)C(C(=O)NC1CCCC1)c1ccccc1F` (configuration not stated) here?
The Potency was “inactive”.

With `CCc1ncc(CN2CCCC(C(=O)Nc3cccc(-c4ccc(F)cc4)c3)C2)cn1` (configuration not stated) as the compound, how does the Potency read?
The Potency was inconclusive: 11.7 µM [inhibitor, partial curve, poor fit].

With `CN(CC(=O)Nc1cc(Cl)ccc1C#N)C1CCS(=O)(=O)C1` (configuration not stated) as the compound, how does the Potency read?
Its Potency is inconclusive: 4.15 µM [inhibitor, partial curve].

With `c1ccc2c(c1)Nc1cc3ccccc3cc1S2` as the compound, how does the Potency read?
Its Potency is “inactive”.
